Four molecules from PMC6381103 can be followed below.

Chains of the proteins cited; added tags and fusions are not shown.
UniProt Q969H0: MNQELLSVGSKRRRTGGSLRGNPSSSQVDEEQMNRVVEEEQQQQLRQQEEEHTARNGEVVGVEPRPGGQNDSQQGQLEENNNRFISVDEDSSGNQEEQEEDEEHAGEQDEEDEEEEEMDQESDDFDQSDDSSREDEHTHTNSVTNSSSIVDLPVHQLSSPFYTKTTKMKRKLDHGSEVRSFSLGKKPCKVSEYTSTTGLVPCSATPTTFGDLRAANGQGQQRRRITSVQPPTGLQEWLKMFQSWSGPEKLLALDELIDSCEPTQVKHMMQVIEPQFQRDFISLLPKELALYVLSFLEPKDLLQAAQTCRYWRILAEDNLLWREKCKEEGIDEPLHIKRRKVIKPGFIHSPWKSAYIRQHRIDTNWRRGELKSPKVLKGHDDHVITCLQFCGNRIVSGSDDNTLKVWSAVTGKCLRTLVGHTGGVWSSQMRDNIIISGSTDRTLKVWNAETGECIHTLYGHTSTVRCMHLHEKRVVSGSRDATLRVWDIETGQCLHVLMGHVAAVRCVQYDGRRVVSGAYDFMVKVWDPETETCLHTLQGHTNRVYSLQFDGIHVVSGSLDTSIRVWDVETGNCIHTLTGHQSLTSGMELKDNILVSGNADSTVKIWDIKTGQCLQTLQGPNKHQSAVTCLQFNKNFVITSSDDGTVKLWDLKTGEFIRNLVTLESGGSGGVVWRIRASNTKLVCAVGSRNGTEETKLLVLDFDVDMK

These are yes or no findings as the source states them, for the method shown. Binding seen in cells or lysates may run through a third protein. Some entries that bind do so weakly or less than the wild type. For part of these data: Sequences can lack the tags named with a protein.

Experiment [1] deals with T1, XBP1s (spliced, active form of X-box binding protein 1), transiently expressed (UniProt P17861).
T1 sequence: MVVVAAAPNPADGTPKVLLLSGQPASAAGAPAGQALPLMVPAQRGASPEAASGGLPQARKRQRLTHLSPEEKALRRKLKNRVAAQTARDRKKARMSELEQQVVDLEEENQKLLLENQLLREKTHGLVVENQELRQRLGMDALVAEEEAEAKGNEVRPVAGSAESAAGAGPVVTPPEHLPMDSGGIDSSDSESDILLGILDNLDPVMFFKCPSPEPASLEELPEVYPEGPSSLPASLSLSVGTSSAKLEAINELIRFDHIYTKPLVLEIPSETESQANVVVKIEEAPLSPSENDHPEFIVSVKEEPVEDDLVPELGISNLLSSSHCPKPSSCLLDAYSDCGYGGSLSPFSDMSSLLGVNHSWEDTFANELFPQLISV
Kind of experiment: co-IP; HEK293FT cells co-transfected with XBP1s and FLAG-Fbw7; immunoprecipitation with anti-XBP1; blot with anti-XBP1 and anti-FLAG.

In experiment [2] the target is T2, endogenous XBP1s, induced by tunicamycin (human (endogenous in HEK293FT)) (UniProt P17861).
T2 sequence: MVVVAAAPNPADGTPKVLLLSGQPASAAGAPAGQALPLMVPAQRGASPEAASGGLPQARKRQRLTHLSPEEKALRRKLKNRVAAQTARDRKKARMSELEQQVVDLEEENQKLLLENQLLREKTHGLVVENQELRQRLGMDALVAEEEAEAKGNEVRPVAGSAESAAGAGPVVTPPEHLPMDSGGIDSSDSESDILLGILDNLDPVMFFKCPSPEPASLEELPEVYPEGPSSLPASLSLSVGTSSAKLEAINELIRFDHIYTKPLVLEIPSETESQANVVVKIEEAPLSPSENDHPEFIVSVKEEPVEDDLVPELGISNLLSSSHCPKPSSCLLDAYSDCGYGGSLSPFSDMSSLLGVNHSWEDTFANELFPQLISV
In words: co-IP; endogenous proteins; HEK293FT cells treated with 1 μg/ml tunicamycin for 24 h; immunoprecipitation with anti-XBP1.

Experiment [3] concerns the target FLAG-Fbw7, transiently expressed (UniProt Q969H0). In words: co-IP; lysates with transiently expressed XBP1 and/or FLAG-Fbw7 treated with λ-phosphatase, then co-immunoprecipitation.
Experiment [4] shares this target. Kind of experiment: co-IP; HEK293FT cells co-transfected with XBP1s (wild type or mutant) and FLAG-Fbw7; lysate incubated with anti-FLAG-coated magnetic beads at 4 °C for 2 h; blot with anti-XBP1 and anti-FLAG.
For experiment [5] the target is unchanged. Kind of experiment: condition: only lysates treated with calf intestinal alkaline phosphatase (CIP); co-IP; lysates with transiently expressed XBP1s and/or FLAG-Fbw7 treated with calf intestinal alkaline phosphatase (CIP; 80 μM, 30 min, 37 °C), then co-immunoprecipitation.

“FLAG-Fbw7, transiently expressed (from UniProt Q969H0 1-707)”: the binding result in experiment [1] is on record as “binds”. Take “endogenous Fbw7 (from UniProt Q969H0 1-707)”: the binding entry in experiment [2] is on record as “binds”.

B1: XBP1s (spliced, active form of X-box binding protein 1), transiently expressed (protein, UniProt P17861-2 1-376)
chain: MVVVAAAPNPADGTPKVLLLSGQPASAAGAPAGQALPLMVPAQRGASPEAASGGLPQARKRQRLTHLSPEEKALRRKLKNRVAAQTARDRKKARMSELEQQVVDLEEENQKLLLENQLLREKTHGLVVENQELRQRLGMDALVAEEEAEAKGNEVRPVAGSAESAAGAGPVVTPPEHLPMDSGGIDSSDSESDILLGILDNLDPVMFFKCPSPEPASLEELPEVYPEGPSSLPASLSLSVGTSSAKLEAINELIRFDHIYTKPLVLEIPSETESQANVVVKIEEAPLSPSENDHPEFIVSVKEEPVEDDLVPELGISNLLSSSHCPKPSSCLLDAYSDCGYGGSLSPFSDMSSLLGVNHSWEDTFANELFPQLISV
Turning to B1, the binding entry is “no binding (condition: lysates treated with λ-phosphatase)” in experiment [3], “binds” in experiment [4] and “no binding” in experiment [5].

B2: XBP1s S212/217 A mutant, transiently expressed (protein, UniProt P17861-2 1-376)
chain: MVVVAAAPNPADGTPKVLLLSGQPASAAGAPAGQALPLMVPAQRGASPEAASGGLPQARKRQRLTHLSPEEKALRRKLKNRVAAQTARDRKKARMSELEQQVVDLEEENQKLLLENQLLREKTHGLVVENQELRQRLGMDALVAEEEAEAKGNEVRPVAGSAESAAGAGPVVTPPEHLPMDSGGIDSSDSESDILLGILDNLDPVMFFKCPAPEPAALEELPEVYPEGPSSLPASLSLSVGTSSAKLEAINELIRFDHIYTKPLVLEIPSETESQANVVVKIEEAPLSPSENDHPEFIVSVKEEPVEDDLVPELGISNLLSSSHCPKPSSCLLDAYSDCGYGGSLSPFSDMSSLLGVNHSWEDTFANELFPQLISV
With B2, in experiment [4], the binding entry was “binds”.
